Consider 24 compounds from the antibiotic and cytotoxicity screens of Wong et al. (2023).

One test concerns HSkMC. The test is described as follows: cytotoxicity call (relative viability < 0.9). The note with it: 10 µM.
The next test deals with HepG2. The test is described as follows: cytotoxicity call (relative viability < 0.9). The note with it: 10 µM.
A further test deals with S. aureus RN4220. The test can be described thus: growth inhibition call (relative growth <= 0.2). Particulars: 50 µM.

Structures are written as SMILES. Some of the results follow.

With `COCC(=O)N1C[C@@H](C)[C@H](OC)CN(C)C(=O)c2ccc(NC(=O)Nc3ccccc3)cc2OC[C@@H]1C`, the cytotoxicity call with HSkMC and in the test on HepG2 was “inactive” each time. Besides, the growth inhibition call in the test with S. aureus RN4220 was “inactive”.

In the case of `C[C@@H]1CCCCO[C@@H](CN(C)C(=O)Cc2ccccc2)[C@H](C)CN([C@@H](C)CO)C(=O)c2cc(NC(=O)Cc3ccccc3)ccc2O1`, the cytotoxicity call in the test with HSkMC and in the test on HepG2 was “inactive” each time. Besides, in the test with S. aureus RN4220, the growth inhibition call was “inactive”.

As to `CC(=O)NCCCC[C@@H]1NC(=O)[C@H]2C[C@@H](C(=O)NCCCCCCN(C)C)[C@@H](c3ccc(O)cc3)N2C1=O`, the cytotoxicity call in the test on HSkMC and with HepG2 was “inactive” each time. Besides, the growth inhibition call in the test on S. aureus RN4220 was “inactive”.

Take `CN(C)CC(=O)N[C@H]1CC[C@@H](CCNS(=O)(=O)c2ccccc2)O[C@@H]1CO`: the cytotoxicity call with HSkMC and with HepG2 was “inactive” throughout. For the same compound, in the test with S. aureus RN4220, the growth inhibition call is “inactive”.

For the compound `CC(C)CN(C(=O)COC(=O)c1c2c(nc3ccccc13)CCC2)c1c(N)n(Cc2ccccc2)c(=O)[nH]c1=O`, the cytotoxicity call with HSkMC and in the test with HepG2 was “inactive” in each case. The growth inhibition call in the test with S. aureus RN4220 was “inactive”.

Regarding `Cn1cc(CN2CCC(C(=O)N[C@@H](c3ccc(F)cc3)c3ccc4ccccc4n3)CC2)c2ccccc21`, the cytotoxicity call in the test with HSkMC and in the test on HepG2 was “active” throughout. Also, in the test with S. aureus RN4220, the growth inhibition call is “inactive”.

Take `COc1ccc(NC(=O)N(C)C[C@H]2Oc3ccc(NS(C)(=O)=O)cc3C(=O)N([C@@H](C)CO)C[C@H]2C)cc1`: the cytotoxicity call in the test on HSkMC and in the test on HepG2 was “inactive” in each case. Also, the growth inhibition call in the test with S. aureus RN4220 was “inactive”.

With `C[C@@H]1CN([C@H](C)CO)C(=O)CCCn2cc(nn2)CO[C@@H]1CN(C)C(=O)Nc1ccc(C(F)(F)F)cc1`, the cytotoxicity call in the test on HSkMC and in the test with HepG2 was “inactive” each time. Moreover, the growth inhibition call in the test with S. aureus RN4220 was “inactive”.

Regarding `C[C@@H]1CN([C@H](C)CO)C(=O)c2cc(NC(=O)Nc3cccc4ccccc34)ccc2O[C@@H]1CN(C)Cc1ccccc1`, in the test on HSkMC, the cytotoxicity call was “inactive”. Moreover, in the test with HepG2, the cytotoxicity call is “active”. Moreover, in the test with S. aureus RN4220, the growth inhibition call is “inactive”.

Take `Cc1ccc(S[C@]2(C(=O)NC3CC3)CC(=O)N(Cc3ccccc3C(F)(F)F)[C@@H]2c2ccc(CO)cc2I)cc1`: the cytotoxicity call with HSkMC and in the test with HepG2 was “inactive” throughout. Further, the growth inhibition call in the test on S. aureus RN4220 was “inactive”.

Regarding `CC[C@H](C)[C@H](NC(=O)[C@H](Cc1ccc(O)cc1)NC(=O)[C@@H](NC(=O)[C@@H](CCCNC(=N)N)NC(=O)[C@@H](N)CC(=O)O)C(C)C)C(=O)N[C@@H](Cc1cnc[nH]1)C(=O)N1CCC[C@@H]1C(=O)N[C@H](Cc1ccccc1)C(=O)O`, the cytotoxicity call with HSkMC and with HepG2 was “inactive” in each case. Also, the growth inhibition call with S. aureus RN4220 was “inactive”.

As to `C[C@H](CO)N1C[C@H](C)[C@@H](CN(C)C(=O)Nc2ccccc2)Oc2c(NC(=O)Nc3cccc4ccccc34)cccc2C1=O`, the cytotoxicity call in the test on HSkMC and with HepG2 was “inactive” throughout. Further, the growth inhibition call in the test on S. aureus RN4220 is “inactive”.

In the case of `O=C(CS)NCCCCCCNC(=O)[C@H]1C[C@H]2C(=O)NCC(=O)N2[C@H]1c1ccc(O)cc1`, the cytotoxicity call with HSkMC and with HepG2 was “inactive” each time. Also, the growth inhibition call in the test with S. aureus RN4220 is “inactive”.

For `COc1cccc(CNC(=O)c2cc3c(c(-c4cccc(-c5ccncc5)c4)n2)[C@@H](CCO)N([S@@](=O)C(C)(C)C)C3)c1`, the cytotoxicity call with HSkMC and in the test on HepG2 was “inactive” each time. In the test on S. aureus RN4220, the growth inhibition call was “inactive”.

`C[C@@H]1CN([C@@H](C)CO)C(=O)c2cc(NS(=O)(=O)c3cccs3)ccc2O[C@@H](C)CCCCO[C@@H]1CN(C)C(=O)Nc1cccc2ccccc12`: the cytotoxicity call in the test on HSkMC and with HepG2 was “inactive” each time. Further, the growth inhibition call with S. aureus RN4220 was “inactive”.

`COc1ccc(S(=O)(=O)N[C@@H]2C=C[C@@H](CC(=O)NCCc3ccncc3)O[C@H]2CO)cc1`: the cytotoxicity call in the test on HSkMC (human skeletal muscle cells) and in the test with HepG2 was “inactive” in each case. Further, in the test with S. aureus RN4220, the growth inhibition call was “inactive”.

As to `C[C@@H]1CN([C@H](C)CO)C(=O)Cc2cc(NS(=O)(=O)c3ccccc3)ccc2O[C@@H]1CN(C)Cc1ccc(Oc2ccccc2)cc1`, the cytotoxicity call with HSkMC and in the test with HepG2 was “active” in each case. Also, the growth inhibition call in the test with S. aureus RN4220 is “inactive”.

Regarding `CC1OC(n2cc(F)c(=O)[nH]c2=O)C(O)C1O` (configuration not stated), the cytotoxicity call in the test with HSkMC and in the test on HepG2 was “inactive” throughout. Further, in the test on S. aureus RN4220, the growth inhibition call was “inactive”.

For `C[C@@H]1CN([C@H](C)CO)C(=O)c2cc(NC(=O)C3CCCCC3)ccc2O[C@@H](C)CCCCO[C@H]1CN(C)Cc1ccccc1`, the cytotoxicity call in the test with HSkMC and in the test on HepG2 was “inactive” in each case. In addition, the growth inhibition call with S. aureus RN4220 is “inactive”.

`CC(C)NC(=O)Nc1ccc2c(c1)CC(=O)N([C@H](C)CO)C[C@@H](C)[C@@H](CN(C)Cc1ccc(-c3ccccc3)cc1)O2`: the cytotoxicity call with HSkMC was “inactive”. Also, in the test with HepG2, the cytotoxicity call was “active”. In the test on S. aureus RN4220, the growth inhibition call is “inactive”.

`C[C@@H]1CN([C@@H](C)CO)C(=O)c2cc(NC(=O)Nc3ccc(C(F)(F)F)cc3)ccc2O[C@@H]1CN(C)C(=O)Nc1ccc(C(F)(F)F)cc1`: the cytotoxicity call with HSkMC and in the test on HepG2 was “inactive” each time. Besides, the growth inhibition call in the test on S. aureus RN4220 was “inactive”.

Consider `C[C@H](CO)N1C[C@H](C)[C@@H](CN(C)Cc2ccc(Cl)c(Cl)c2)OCCCC[C@H](C)Oc2ccc(NC(=O)Cc3ccccc3)cc2C1=O`, for which the cytotoxicity call in the test with HSkMC was “inactive”. Further, the cytotoxicity call in the test with HepG2 is “active”. For the same compound, the growth inhibition call in the test on S. aureus RN4220 was “inactive”.

As to `COc1ccc(CN(C)C[C@H]2Oc3ccc(NC(=O)Nc4cccc5ccccc45)cc3CC(=O)N([C@@H](C)CO)C[C@H]2C)cc1`, the cytotoxicity call in the test with HSkMC is “inactive”. Besides, the cytotoxicity call in the test on HepG2 was “active”. In addition, the growth inhibition call in the test with S. aureus RN4220 was “inactive”.

As for `C[C@H](CO)N1C[C@H](C)[C@@H](CN(C)Cc2ccc3c(c2)OCO3)Oc2c(NS(C)(=O)=O)cccc2C1=O`, the cytotoxicity call with HSkMC and with HepG2 was “inactive” each time. For the same compound, the growth inhibition call with S. aureus RN4220 was “inactive”.
